Results published in paper PMC6919601, “Identification of Plasmodium dipeptidyl aminopeptidase allosteric inhibitors by high throughput screening” (PLoS ONE, 2019).
Hit rate of the full screen: of about 110,000 compounds, about 230 (0.21%) showed an effect of 50% or more. Some of the results follow.

Target: DPAP1 (Plasmodium falciparum, UniProt Q8IIJ9)
Experiment: primary screen, percent inhibition; read by cleavage of a fluorogenic dipeptide substrate; higher = more effect of the substance
Parameters: species or system P. falciparum D10 trophozoite lysates; single well
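Also: 30 min substrate incubation versus DMSO and 10 µM JCP410 controls.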

DPAP1, sequence (Q8IIJ9 whole entry, looked up): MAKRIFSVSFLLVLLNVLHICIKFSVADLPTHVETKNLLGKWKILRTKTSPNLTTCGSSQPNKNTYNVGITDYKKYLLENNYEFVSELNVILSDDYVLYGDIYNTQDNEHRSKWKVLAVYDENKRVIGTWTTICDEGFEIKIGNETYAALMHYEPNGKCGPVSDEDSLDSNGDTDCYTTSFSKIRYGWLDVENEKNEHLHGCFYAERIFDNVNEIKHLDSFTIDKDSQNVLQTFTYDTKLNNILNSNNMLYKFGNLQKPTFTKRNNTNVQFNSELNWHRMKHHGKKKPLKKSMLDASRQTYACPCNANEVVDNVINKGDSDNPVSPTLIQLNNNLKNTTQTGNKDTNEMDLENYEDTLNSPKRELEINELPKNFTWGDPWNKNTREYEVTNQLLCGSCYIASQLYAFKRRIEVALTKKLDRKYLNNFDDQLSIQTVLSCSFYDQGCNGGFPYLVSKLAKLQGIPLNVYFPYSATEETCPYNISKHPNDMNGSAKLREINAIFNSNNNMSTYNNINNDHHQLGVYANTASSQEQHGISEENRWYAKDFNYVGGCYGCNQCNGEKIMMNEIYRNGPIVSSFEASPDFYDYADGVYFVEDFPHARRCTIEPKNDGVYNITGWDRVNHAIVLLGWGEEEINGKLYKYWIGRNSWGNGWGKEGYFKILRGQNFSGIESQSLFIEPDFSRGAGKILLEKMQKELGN

SMILES	% Inhibition @ 10 uM [%]
COc1ccc(NC2C3CC4CC(C3)CC2C4)cc1OC (stereo not shown)	-7.87
Cc1nn2c(N)c(-c3ccc(Cl)cc3)cnc2c1-c1ccccc1	4.11
CCc1ccccc1NC1=C(Cl)C(=O)N(Cc2ccccc2)C1=O	-2.46
CCCCOC(=O)c1ccc(CC(=O)c2ccc(O)cc2O)o1	-1.29
Clc1ccc(CNc2nc(N3CCCC3)nc(N3CCCC3)n2)cc1	-2.72
Cc1cccc(OCCCc2c(C)n[nH]c2C)c1C	1.74
Cc1cccc(CCNC(=O)[C@@H](c2ccccc2)N2Cc3ccccc3C2=O)c1	-6.03
CC(C)CC(NC(=O)c1ccccc1C(F)(F)F)C(=O)NCC#N (stereo not shown)	-6.68
Cn1nc(-c2ccccc2F)c2cc(C(=O)NCCCN3CCCC3=O)sc21	-3.23
COc1ccc2[nH]cc(CCNC(=O)C3CCN(c4cnccn4)CC3)c2c1	-4.71
CC(C)C(=O)Nc1ccc(NC(=O)c2ccccc2Br)cc1	1.64
O=C(O)c1cc(-c2ccccc2Cl)nc2ccccc12	1.4
N#CC1=C(N)N(c2cccnc2)C2=C(C(=O)CC(c3ccccc3)C2)C1c1cccc(Br)c1 (stereo not shown)	3.79
CCc1cc2c(N3CCN(C)CC3)ncnc2s1	-7.6
O=C(C1=C(O)C(=O)N(c2ccccn2)C1c1ccccc1)c1cccs1 (stereo not shown)	-0.0619
NC(=O)C1CCN(c2c(C(=O)c3ccccc3)cnc3ccc(F)cc23)CC1	-4.34
CCNS(=O)(=O)c1ccc(NC(=O)c2ccc(Cn3nc(C)cc3C)o2)cc1	-2.6
COc1ccc(CNC(=O)c2cc(S(=O)(=O)N3CCCC3)c[nH]2)cc1	-4.99
COc1cc(CNc2ccc(F)cc2)ccc1OCC(=O)NC(C)(C)C	1.64
O=C(CCN1C(=O)c2ccccc2C1=O)Nc1ccccc1Oc1ccccc1	-2.68
O=C(NCc1cccs1)C1CC(=O)N(c2ccccc2)C1 (stereo not shown)	-4.7
CC(C)N1CSCC1COc1cccc2ccccc12 (stereo not shown)	0.635

SMILES	% Inhibition @ 10 uM [%]
COc1cc2oc3ccccc3c2cc1N(CC(=O)N1CCCCC1)S(=O)(=O)c1ccccc1	0.231
Cc1ccnc2nc(NC(=O)C3CCCO3)nn12 (stereo not shown)	2.05
CCC[C@H](NC(=O)C1(NC(=O)N2CCN(C(C)(C)C)CC2)CCCCC1)C(=O)c1nnc(COC)o1	-10.1
O=C(NC1CCCCCC1)C1CCC(CNS(=O)(=O)c2cccs2)CC1 (stereo not shown)	-3.87
CN(C)CCC(=O)c1ccc(O)cc1	-0.807
Cc1ccc(NC(=O)CSc2nc(N)cc(O)n2)cc1	-0.725
N=c1c2nc(-c3ccco3)nc(O)c2[nH]c(=O)n1-c1ccccc1	-1.43
CC(C)CC(C(=O)NCC#N)c1cccc(NC(=O)OCCN2CCOCC2)c1 (stereo not shown)	-7.36
CCN(CC)C(=O)C1(O)c2ccccc2NC(=O)N1c1ccccc1 (stereo not shown)	-4.06
O=C(O)C1C2C=CC(C2)C1C(=O)NCCCn1ccnc1 (stereo not shown)	-0.116
COc1ccc(S(=O)(=O)Nc2cccc(N(C)S(C)(=O)=O)c2)c(Cl)c1Cl	4.37
COc1cccc(C2C(C(=O)c3ccc4c(c3)CC(C)O4)=C(O)C(=O)N2CC2CCCO2)c1 (stereo not shown)	1.27
Cc1cccc(C)c1OCCCCCCN1CCOCC1	-1.17
Cc1c2cnn(CC(=O)NCCCN3CCOCC3)c(=O)c2c(C)n1Cc1ccccc1Cl	-5.81
O=C(CCNS(=O)(=O)c1ccc2nc(O)ccc2c1)Nc1nccs1	-0.544
COc1ccc(/C(O)=C/C=N/c2cccc(O)c2)cc1OC	8.62
COc1ccc(C2C(=O)N(C3CCCCCC3)CC(=O)N2Cc2ccccc2Cl)cc1 (stereo not shown)	-2.26
CCN(CC)CCCNC(=O)c1cc(-c2ccc(C)cc2)on1	-5.2
C=CCc1cc(OC)ccc1OCCOCCN1CCC(C)CC1	4.84
O=C(Nc1ccccc1)c1ccc2nc3ccccc3nc2c1	5.42
CCOC(=O)N1CCN(c2c(NC3CCN(Cc4ccccc4)CC3)c(=O)c2=O)CC1	0.277
COc1ccc(-c2nn(-c3ccccc3)cc2C(=O)N(C)C)cc1	-3.28

SMILES	% Inhibition @ 10 uM [%]
Cc1ccc(OCC(=O)Nc2nc(C)c(C)s2)cc1C	3.62
Cc1oc(-c2cccs2)nc1CS(=O)CC(=O)NCc1ccccc1 (stereo not shown)	-5.58
CCOc1cc(C)nc(-c2ccccc2)n1	-3.27
O=C(COc1ccccc1)Nc1ccc2c(c1)C(=O)NC2=O	2.76
CC1=C(C(=O)OCCc2ccccc2)C(c2ccc(Cl)cc2Cl)NC(=O)N1 (stereo not shown)	-3.82
O=C(NC1CCCC1)c1ccc(COc2cccc3ccccc23)o1	-11.4
CCOC(=O)N1CCC(N2CCN(S(C)(=O)=O)CC2)CC1	-1.26
CCC/C(=N\c1ccccc1OC)C1=C(O)CCCC1=O	4
c1nc(N2CCOCC2)c2nc3n(c2n1)CCCCC3	-3.5
COc1ccc(-c2nc(CS(=O)CC(=O)NCCCSC3CCCCC3)c(C)o2)cc1OC (stereo not shown)	-3.7
CC1=C(C(=O)OCCc2ccccc2)C(c2ccccc2F)NC(=O)N1 (stereo not shown)	4.98
CC1CCCC(C)N1CCNC(=O)c1ccc2c(c1)ncn2C1CCCC1 (stereo not shown)	-3.12
Cc1ccc(C)c(NC(=O)c2cccnc2)c1	0.311
O=[N+]([O-])c1cccc(NC2OC(CO)C(O)C2O)c1 (stereo not shown)	-0.0217
COc1ccccc1C(=O)N1CCN(S(=O)(=O)c2ccc3ccccc3c2)CC1	-4.93
NC(=O)C1CCN(C(=O)COCc2cc(-c3cccs3)on2)CC1	-6.73
CCCCCOC(=O)c1ccc2c(c1)C(=O)N(c1cccc([N+](=O)[O-])c1)C2=O	-0.771
COc1ccc(C2C(C(=O)c3ccc(C)o3)=C(O)C(=O)N2Cc2ccco2)cc1OC (stereo not shown)	-5.83
CCOC(=O)c1cc(S(=O)(=O)NC(C)(C)C)cn1C	-6.59
COc1ccc(-n2c(C)cc(/C=C3/NC(=O)N(Cc4ccccc4)C3=O)c2C)cc1	-2.21
